pKd: −log10 of the molar value. For some of these results: The hits were mostly taken out for another list; the other results follow. The entries are a selection whose mix differs from that of the whole data set.
Columns and labels:
PCTK2 = system: T1, PCTK2
T1 construct: gene CDK17
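Note: kd values determined as follow-up on hits from a single-replicate KINOMEscan panel screen.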

`Cc1cc(C)cc(Oc2nccc(-c3c(-c4ccc(F)cc4)ncn3C3CCNCC3)n2)c1.O=C(O)C(F)(F)F.O=C(O)C(F)(F)F.O=C(O)C(F)(F)F` [SB-284851] showed a pKd (PIM1) of under 5.00 and a pKd (PRKCI) of under 5.00.
With `CSc1ccc(NC2=C(c3cccc(Cl)c3)C(=O)NC2=O)cc1` [SB-341528] the pKd (PIP5K1A) was under 5.00.
With `O=C1NC(=O)C(c2ccccc2)=C1Nc1cc(Cl)c(O)c(Cl)c1` [SB-390530] the pKd (PIP5K1C) was 5.82.
`O=C1NC(=O)C(c2ccc(Cl)cc2)=C1Nc1ccc(O)c(Cl)c1` [SB-405367] was tested, and the pKd (PCTK2) was under 5.00.
Compound `O=C1NC(=O)C(c2ccccc2Cl)=C1Nc1cccc(C(=O)O)c1` [SB-390526] has a pKd (ULK3) of under 5.00.
`COc1ccc(C2=C(Nc3cccc(Cl)c3)C(=O)NC2=O)cc1` [SB-326892] showed a pKd (PIK3C2G) of under 5.00, a pKd (PIK3CD) of under 5.00 and a pKd (SLK) of 5.20.
With `O=C1NC(=O)C(c2ccccc2)=C1Nc1ccc(Cl)c(C(=O)O)c1` [SB-390532] the pKd (NEK10) was 6.34.
